# Some of the results follow.
# B1: SpnanA (Streptococcus pneumoniae), P62575 (protein)
# chain: MVIEKEDVETNASNGQRVDLSSELDKLKKLENATVHMEFKPDAKAPAFYNLFSVSSATKKDEYFTMAVYNNTATLEGRGSDGKQFYNNYNDAPLKVKPGQWNSVTFTVEKPTAELPKGRVRLYVNGVLSRTSLRSGNFIKDMPDVTHVQIGATKRANNTVWGSNLQIRNLTVYNRALTPEEVQKRS
# Experiments:
# Assay in all cases: glycan array binding signal (z-score within array); higher = stronger binding
# Conditions in all cases: glycan notation: IUPAC condensed, linker removed
# [1] = molecular target: Neu5Ac(a2-6)Gal(b1-4)GlcNAc(b1-2)Man(a1-6)[GlcNAc(b1-2)Man(a1-3)]Man(b1-4)GlcNAc(b1-4)GlcNAc
# Summary of the method: (§1)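 The binding signal is a Z-score computed within each array and averaged over linkers. Arrays of the same protein sequence at different concentrations or buffers were also averaged together. Data originate from 3228 arrays in the Consortium for Functional Glycomics database, kept only where the protein sequence was available.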
# [2] = molecular target: Neu5Ac(a2-6)Gal(b1-4)GlcNAc(b1-2)Man(a1-6)[Man(a1-3)]Man(b1-4)GlcNAc(b1-4)GlcNAc
# Summary of the method: as §1
# [3] = molecular target: Neu5Ac(a2-6)Gal(b1-4)GlcNAc(b1-3)Gal(b1-3)GlcNAc
# Summary of the method: as §1
# [4] = molecular target: Neu5Ac(a2-6)Gal(b1-4)GlcNAc(b1-3)Gal(b1-4)GlcNAc
# Summary of the method: as §1
# [5] = molecular target: Neu5Ac(a2-6)Gal(b1-4)GlcNAc(b1-3)Gal(b1-4)GlcNAc(b1-3)Gal(b1-4)GlcNAc
# Summary of the method: as §1
# [6] = molecular target: Neu5Ac(a2-6)Gal(b1-4)GlcNAc(b1-3)Gal(b1-4)[Fuc(a1-3)]GlcNAc(b1-3)Gal(b1-4)[Fuc(a1-3)]GlcNAc
# Summary of the method: as §1
# [7] = molecular target: Neu5Ac(a2-6)Gal(b1-4)GlcNAc(b1-3)GalNAc
# Summary of the method: as §1
# [8] = molecular target: Neu5Ac(a2-6)Gal(b1-4)GlcNAc(b1-3)[Neu5Ac(a2-6)Gal(b1-4)GlcNAc(b1-6)]GalNAc
# Summary of the method: as §1
# [9] = molecular target: Neu5Ac(a2-6)Gal(b1-4)GlcNAc(b1-6)GalNAc
# Summary of the method: as §1
# [10] = molecular target: Neu5Ac(a2-6)Gal(b1-4)GlcNAc(b1-6)[Gal(b1-3)GlcNAc(b1-3)]Gal(b1-4)Glc
# Summary of the method: as §1
# [11] = molecular target: Neu5Ac(a2-6)Gal(b1-4)GlcNAc6S
# Summary of the method: as §1
# Neu5Ac(a2-6)GalNAc = molecular target: Neu5Ac(a2-6)GalNAc
# Summary of the method: as §1
# [12] = molecular target: Neu5Ac(a2-6)GalNAc(b1-4)GlcNAc
# Summary of the method: as §1
# [13] = molecular target: Neu5Ac(a2-6)GalNAc(b1-4)GlcNAc6S
# Summary of the method: as §1
# [14] = molecular target: Neu5Ac(a2-6)GlcNAc(b1-4)GlcNAc
# Summary of the method: as §1
# [15] = molecular target: Neu5Ac(a2-6)GlcNAc(b1-4)GlcNAc(b1-4)GlcNAc
# Summary of the method: as §1
# Neu5Ac(a2-8)Neu5Ac = molecular target: Neu5Ac(a2-8)Neu5Ac
# Summary of the method: as §1
# [16] = molecular target: Neu5Ac(a2-8)Neu5Ac(a2-3)Gal(b1-3)GalNAc(b1-4)[Neu5Ac(a2-8)Neu5Ac(a2-3)]Gal(b1-4)Glc
# Summary of the method: as §1
# [17] = molecular target: Neu5Ac(a2-8)Neu5Ac(a2-3)Gal(b1-4)Glc
# Summary of the method: as §1
# [18] = molecular target: Neu5Ac(a2-8)Neu5Ac(a2-3)[Gal(b1-3)GalNAc(b1-4)]Gal(b1-4)Glc
# Summary of the method: as §1
# [19] = molecular target: Neu5Ac(a2-8)Neu5Ac(a2-3)[GalNAc(b1-4)]Gal(b1-4)Glc
# Summary of the method: as §1
# [20] = molecular target: Neu5Ac(a2-8)Neu5Ac(a2-8)Neu5Ac
# Summary of the method: as §1
# [21] = molecular target: Neu5Ac(a2-8)Neu5Ac(a2-8)Neu5Ac(a2-3)Gal(b1-4)Glc
# Summary of the method: as §1
# [22] = molecular target: Neu5Ac(a2-8)Neu5Ac(a2-8)Neu5Ac(a2-3)[GalNAc(b1-4)]Gal(b1-4)Glc
# Summary of the method: as §1
# [23] = molecular target: Neu5Ac(a2-8)Neu5Ac(a2-8)Neu5Ac(a2-8)Neu5Ac(a2-3)[GalNAc(b1-4)]Gal(b1-4)Glc
# Summary of the method: as §1
# [24] = molecular target: Neu5Ac(b2-6)Gal(b1-4)GlcNAc
# Summary of the method: as §1
# Neu5Ac(b2-6)GalNAc = molecular target: Neu5Ac(b2-6)GalNAc
# Summary of the method: as §1
# [25] = molecular target: Neu5Ac9Ac(a2-3)Gal(b1-3)GlcNAc
# Summary of the method: as §1
# [26] = molecular target: Neu5Ac9Ac(a2-3)Gal(b1-4)GlcNAc
# Summary of the method: as §1
# [27] = molecular target: Neu5Ac9Ac(a2-6)Gal(b1-4)GlcNAc
# Summary of the method: as §1
# [28] = molecular target: Neu5Gc(a2-3)Gal(b1-3)GlcNAc
# Summary of the method: as §1
# [29] = molecular target: Neu5Gc(a2-3)Gal(b1-3)[Fuc(a1-4)]GlcNAc
# Summary of the method: as §1
# Neu5Gc(a2-3)Gal(b1-4)Glc = molecular target: Neu5Gc(a2-3)Gal(b1-4)Glc
# Summary of the method: as §1
# [30] = molecular target: Neu5Gc(a2-3)Gal(b1-4)GlcNAc
# Summary of the method: as §1
# [31] = molecular target: Neu5Gc(a2-3)Gal(b1-4)[Fuc(a1-3)]GlcNAc
# Summary of the method: as §1
# [32] = molecular target: Neu5Gc(a2-6)Gal(b1-4)GlcNAc
# Summary of the method: as §1
# Neu5Gc(a2-6)GalNAc = molecular target: Neu5Gc(a2-6)GalNAc
# Summary of the method: as §1
# [33] = molecular target: Neu5Gc(b2-6)Gal(b1-4)GlcNAc
# Summary of the method: as §1
binder,measurement,setting,value
B1,glycan array binding signal (z-score),[1],-0.205
same,glycan array binding signal (z-score),[2],-0.037
same,glycan array binding signal (z-score),[3],-0.115
same,glycan array binding signal (z-score),[4],0.225
same,glycan array binding signal (z-score),[5],0.085
same,glycan array binding signal (z-score),[6],0.007
same,glycan array binding signal (z-score),[7],-0.184
same,glycan array binding signal (z-score),[8],-0.21
same,glycan array binding signal (z-score),[9],0.833
same,glycan array binding signal (z-score),[10],-0.327
same,glycan array binding signal (z-score),[11],0.34
same,glycan array binding signal (z-score),Neu5Ac(a2-6)GalNAc,-0.087
same,glycan array binding signal (z-score),[12],0.058
same,glycan array binding signal (z-score),[13],-0.062
same,glycan array binding signal (z-score),[14],0.335
same,glycan array binding signal (z-score),[15],0.035
same,glycan array binding signal (z-score),Neu5Ac(a2-8)Neu5Ac,0.254
same,glycan array binding signal (z-score),[16],-0.354
same,glycan array binding signal (z-score),[17],-0.083
same,glycan array binding signal (z-score),[18],-0.296
same,glycan array binding signal (z-score),[19],-0.073
same,glycan array binding signal (z-score),[20],-0.088
same,glycan array binding signal (z-score),[21],0.22
same,glycan array binding signal (z-score),[22],-0.089
same,glycan array binding signal (z-score),[23],0.144
same,glycan array binding signal (z-score),[24],-0.288
same,glycan array binding signal (z-score),Neu5Ac(b2-6)GalNAc,-0.272
same,glycan array binding signal (z-score),[25],0.222
same,glycan array binding signal (z-score),[26],-0.089
same,glycan array binding signal (z-score),[27],-0.091
same,glycan array binding signal (z-score),[28],-0.202
same,glycan array binding signal (z-score),[29],-0.188
same,glycan array binding signal (z-score),Neu5Gc(a2-3)Gal(b1-4)Glc,0.012
same,glycan array binding signal (z-score),[30],-0.279
same,glycan array binding signal (z-score),[31],0.45
same,glycan array binding signal (z-score),[32],-0.243
same,glycan array binding signal (z-score),Neu5Gc(a2-6)GalNAc,-0.279
same,glycan array binding signal (z-score),[33],-0.251
